# In all, about 81,000 sequences were measured (“one-hybrid fitness for binding NBS DNA”: median about -0.1, highest 2% from about 0.36 on). This is one part of the list.
# B1: Caulobacter ParB omega fusion; a variant is named by its letters at X, in order, B8GW30 (parent)
# chain: MESVVVGEPGMSEGRRGLGRGLSALLGEVDAAPAQAPGEQLGGSREAPIEILQRNPDQPRRTFREEDLEDLSNSIREKGVLQPILVRPSPDTAGEYQIVAGERAWRAAQRAGLKTVPIMVRELDDLAVLEIGIIENVQRADLNVLEEALSYKVLMEKFERTQENIAQTIGKSXSHVANXMRLLXLPDEVQSYLVSGELTAXHARAIAAAADPVALAKQIIEGGLSVRETEALARKAPNLSAGKSKGGRPPRVKDTDTQALESDLSSVLGLDVSIDHRGSTGTLTITYATLEQLDDLCNRLTRGI
# Variants of: B1
# Assay: one-hybrid fitness for binding NBS DNA (the Noc-binding site; scaled: cognate 1, non-cognate 0); higher = stronger binding
# Details: with NBS DNA site
# How it was run: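 Caulobacter ParB libraries with four specificity codons randomised were screened by bacterial one-hybrid selection in the E. coli USO strain, using a HIS3 reporter whose site lies 19 bp from the promoter. Selection ran for 48 hours at 37°C on M9 lacking histidine, with 0.1 mM IPTG and 5 mM 3-AT. Plasmids were Illumina-sequenced before and after selection, three replicate libraries were pooled, and variants with under 10 reads were dropped. Fitness is the log change in each variant's read ratio to wild type, rescaled against the cognate and non-cognate sites.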
row,Variant,one-hybrid fitness for binding NBS DNA
1,GCYT,≤ 0.2
2,SASH,≤ 0.2
3,RVWC,≤ 0.2
4,YLRY,≤ 0.2
5,FSNR,≤ 0.2
6,YSVE,≤ 0.2
7,VNRG,≤ 0.2
8,TFTA,≤ 0.2
9,MPKC,≤ 0.2
10,WRSY,≤ 0.2
11,SRHR,≤ 0.2
12,HFDC,≤ 0.2
13,GVHA,≤ 0.2
14,RQMH,≤ 0.2
15,PPNT,≤ 0.2
16,RGDA,≤ 0.2
17,VFTC,≤ 0.2
18,PMGL,≤ 0.2
19,RGKV,≤ 0.2
20,GGRY,≤ 0.2
21,RHIQ,≤ 0.2
22,NRVV,≤ 0.2
23,PDTS,≤ 0.2
24,DWIE,≤ 0.2

row,Variant,one-hybrid fitness for binding NBS DNA
1,CTCH,≤ 0.2
2,KNPP,≤ 0.2
3,HRAL,≤ 0.2
4,KKMC,≤ 0.2
5,AAFY,≤ 0.2
6,RYFN,≤ 0.2
7,SREC,≤ 0.2
8,KTGW,≤ 0.2
9,SASV,≤ 0.2
10,SHIG,≤ 0.2
11,QHAH,≤ 0.2
12,RCLP,≤ 0.2
13,LLWS,≤ 0.2
14,PNWR,≤ 0.2
15,PWQS,≤ 0.2
16,PVHI,≤ 0.2
17,SLPE,≤ 0.2
18,APPQ,≤ 0.2
19,ECKN,≤ 0.2
20,WRIS,≤ 0.2
21,AARI,≤ 0.2
22,DLHS,≤ 0.2
23,WKDV,≤ 0.2
24,TPMT,≤ 0.2

row,Variant,one-hybrid fitness for binding NBS DNA
1,DVAI,≤ 0.2
2,QFYV,≤ 0.2
3,EDRL,≤ 0.2
4,GHQA,≤ 0.2
5,QHNF,≤ 0.2
6,AHLC,≤ 0.2
7,NVAM,≤ 0.2
8,PTDT,≤ 0.2
9,YWSL,≤ 0.2
10,RALQ,≤ 0.2
11,CLEW,≤ 0.2
12,FPVA,≤ 0.2
13,VEGM,≤ 0.2
14,RGCV,≤ 0.2
15,VQVC,≤ 0.2
16,PFTI,≤ 0.2
17,REPV,≤ 0.2
18,HWRI,≤ 0.2
19,EPSF,≤ 0.2
20,ATAD,≤ 0.2
21,QASR,0.482
22,VEHG,≤ 0.2
23,IKVY,≤ 0.2
24,EADS,≤ 0.2

row,Variant,one-hybrid fitness for binding NBS DNA
1,LYWS,≤ 0.2
2,PLPP,≤ 0.2
3,HLPS,≤ 0.2
4,VSHP,≤ 0.2
5,QIMS,≤ 0.2
6,VLRG,≤ 0.2
7,LAPT,≤ 0.2
8,WGFG,≤ 0.2
9,PVIS,≤ 0.2
10,RQRT,0.615
11,KHRR,0.367
12,TPQL,≤ 0.2
13,IRNC,≤ 0.2
14,PVNS,≤ 0.2
15,EKKR,0.216
16,CRPM,≤ 0.2
17,AITC,≤ 0.2
18,NSHS,≤ 0.2
19,NGLL,≤ 0.2
20,SMEV,≤ 0.2
21,ETHT,≤ 0.2
22,QLGH,≤ 0.2
23,CVKS,≤ 0.2
24,NKYF,≤ 0.2

row,Variant,one-hybrid fitness for binding NBS DNA
1,NLRV,≤ 0.2
2,MTRG,≤ 0.2
3,PWTY,≤ 0.2
4,CCHS,≤ 0.2
5,RMFV,≤ 0.2
6,NWHG,≤ 0.2
7,WTDT,≤ 0.2
8,GYPA,≤ 0.2
9,DLGV,≤ 0.2
10,NKVQ,≤ 0.2
11,CRDV,≤ 0.2
12,EPTR,≤ 0.2
13,CPAA,≤ 0.2
14,CSHC,≤ 0.2
15,GSFS,≤ 0.2
16,DIRT,≤ 0.2
17,KRGM,≤ 0.2
18,MVIP,≤ 0.2
19,STAL,≤ 0.2
20,TSTK,≤ 0.2
21,QHHL,≤ 0.2
22,WESR,≤ 0.2
23,DKAY,≤ 0.2
24,CLAA,≤ 0.2

row,Variant,one-hybrid fitness for binding NBS DNA
1,PWPD,≤ 0.2
2,LYRV,≤ 0.2
3,KGTS,≤ 0.2
4,SLRF,≤ 0.2
5,NRCG,≤ 0.2
6,RHAW,≤ 0.2
7,TLDI,≤ 0.2
8,NLDG,≤ 0.2
9,IWRR,≤ 0.2
10,QPKS,≤ 0.2
11,GHNV,≤ 0.2
12,KRCA,0.291
13,VRER,≤ 0.2
14,QIDM,≤ 0.2
15,SWLS,≤ 0.2
16,APYC,≤ 0.2
17,RMLT,0.347
18,ANHY,≤ 0.2
19,QTCN,≤ 0.2
20,PMVW,≤ 0.2
21,RTMF,≤ 0.2
22,ATAF,≤ 0.2
23,SMHM,≤ 0.2
24,QAIL,≤ 0.2

row,Variant,one-hybrid fitness for binding NBS DNA
1,SMSL,≤ 0.2
2,SWTY,≤ 0.2
3,RMIM,≤ 0.2
4,YTIG,≤ 0.2
5,TTKK,≤ 0.2
6,LFFS,≤ 0.2
7,GMVV,≤ 0.2
8,LRLE,≤ 0.2
9,SLAW,≤ 0.2
10,DMPN,≤ 0.2
11,PQML,≤ 0.2
12,AIGL,≤ 0.2
13,CANC,≤ 0.2
14,RAYY,≤ 0.2
15,IWIR,≤ 0.2
16,PYQL,≤ 0.2
17,RMDM,≤ 0.2
18,LDMR,≤ 0.2
19,IEMC,≤ 0.2
20,ECEG,≤ 0.2
21,HETG,≤ 0.2
22,WANL,≤ 0.2
23,WAFS,≤ 0.2
24,IVAS,≤ 0.2

row,Variant,one-hybrid fitness for binding NBS DNA
1,NAKV,≤ 0.2
2,SNQW,≤ 0.2
3,LHPY,≤ 0.2
4,VSEP,≤ 0.2
5,CDCM,≤ 0.2
6,RFEK,≤ 0.2
7,TDCS,≤ 0.2
8,DRCT,≤ 0.2
9,ARHV,≤ 0.2
10,WDPE,≤ 0.2
11,TPDK,≤ 0.2
12,DVRY,≤ 0.2
13,MLRT,≤ 0.2
14,ARPD,≤ 0.2
15,RVMC,≤ 0.2
16,VSKR,0.201
17,APTT,≤ 0.2
18,QLKS,0.573
19,RLRP,≤ 0.2
20,MGNY,≤ 0.2
21,QTDD,≤ 0.2
22,SNRV,≤ 0.2
23,RDCM,≤ 0.2
24,DGVY,≤ 0.2

row,Variant,one-hybrid fitness for binding NBS DNA
1,VTCG,≤ 0.2
2,PHHI,≤ 0.2
3,NLLV,≤ 0.2
4,KVEH,≤ 0.2
5,KCVR,≤ 0.2
6,MYVR,≤ 0.2
7,QDCF,≤ 0.2
8,MYKY,≤ 0.2
9,CCLG,≤ 0.2
10,RIEG,≤ 0.2
11,CHAD,≤ 0.2
12,VSYT,≤ 0.2
13,FHSR,≤ 0.2
14,RQEG,≤ 0.2
15,VLLV,≤ 0.2
16,FFAT,≤ 0.2
17,QKTD,≤ 0.2
18,SSRM,≤ 0.2
19,RFSD,≤ 0.2
20,TDGT,≤ 0.2
21,VGNR,≤ 0.2
22,YMNM,≤ 0.2
23,AHPC,≤ 0.2
24,RDLF,≤ 0.2

row,Variant,one-hybrid fitness for binding NBS DNA
1,VVHV,≤ 0.2
2,FWSR,≤ 0.2
3,NPSD,≤ 0.2
4,TSMW,≤ 0.2
5,MHFR,≤ 0.2
6,TCYC,≤ 0.2
7,VIHR,≤ 0.2
8,EWHS,≤ 0.2
9,GDHK,≤ 0.2
10,PNVG,≤ 0.2
11,DAIG,≤ 0.2
12,PWFC,≤ 0.2
13,GQTR,≤ 0.2
14,RGMN,≤ 0.2
15,GNYI,≤ 0.2
16,GTHD,≤ 0.2
17,HRMC,≤ 0.2
18,TYDR,≤ 0.2
19,AVFT,≤ 0.2
20,SWFV,≤ 0.2
21,IDVW,≤ 0.2
22,SGFS,≤ 0.2
23,ELTR,≤ 0.2
24,KQGS,≤ 0.2

row,Variant,one-hybrid fitness for binding NBS DNA
1,ACET,≤ 0.2
2,QPLA,≤ 0.2
3,YNKD,≤ 0.2
4,LQMT,≤ 0.2
5,TNRQ,≤ 0.2
6,SDAL,≤ 0.2
7,TNTN,≤ 0.2
8,CPTH,≤ 0.2
9,RINN,≤ 0.2
10,AQQN,≤ 0.2
11,PIIW,≤ 0.2
12,WVWR,≤ 0.2
13,RMKW,≤ 0.2
14,LSPH,≤ 0.2
15,KNRC,≤ 0.2
16,VTQP,≤ 0.2
17,PIHV,≤ 0.2
18,FLET,≤ 0.2
19,GADD,≤ 0.2
20,NDKM,≤ 0.2
21,CNTG,≤ 0.2
22,AWIS,≤ 0.2
23,DLWK,≤ 0.2
24,QISS,0.228

row,Variant,one-hybrid fitness for binding NBS DNA
1,HPHY,≤ 0.2
2,AEYT,≤ 0.2
3,ASMI,≤ 0.2
4,DSYM,≤ 0.2
5,QKSM,≤ 0.2
6,ELSF,≤ 0.2
7,GDNG,≤ 0.2
8,FVRF,≤ 0.2
9,SFCR,≤ 0.2
10,ALRG,≤ 0.2
11,WSYT,≤ 0.2
12,RNSN,≤ 0.2
13,AWDV,≤ 0.2
14,PFLC,≤ 0.2
15,SYLT,≤ 0.2
16,ARKW,≤ 0.2
17,TMEC,≤ 0.2
18,STDW,≤ 0.2
19,QCWF,≤ 0.2
20,RPSD,≤ 0.2
21,RNVC,≤ 0.2
22,QGPN,≤ 0.2
23,TGRW,≤ 0.2
24,EACC,≤ 0.2

row,Variant,one-hybrid fitness for binding NBS DNA
1,HYSC,≤ 0.2
2,RTFD,≤ 0.2
3,MHNG,≤ 0.2
4,TNNL,≤ 0.2
5,QSND,≤ 0.2
6,YHTS,≤ 0.2
7,HHAP,≤ 0.2
8,PADS,≤ 0.2
9,VRVA,≤ 0.2
10,GPCM,≤ 0.2
11,KCEF,≤ 0.2
12,VKTL,≤ 0.2
13,IVLP,≤ 0.2
14,PVAD,≤ 0.2
15,LSQT,≤ 0.2
16,NRCT,≤ 0.2
17,AANV,≤ 0.2
18,DPAQ,≤ 0.2

# Source: a collection of fitness landscapes (doi:10.1016/j.celrep.2020.107928)
